Laboratory results reported in the BET-seq Pho4 binding data (Le et al. 2018).
The list shows a part of the results. The energies were worked out here from pooled read counts, against the library average; single values are noisy.

Target: T1, Pho4 (S. cerevisiae) (UniProt P07270)
T1 sequence: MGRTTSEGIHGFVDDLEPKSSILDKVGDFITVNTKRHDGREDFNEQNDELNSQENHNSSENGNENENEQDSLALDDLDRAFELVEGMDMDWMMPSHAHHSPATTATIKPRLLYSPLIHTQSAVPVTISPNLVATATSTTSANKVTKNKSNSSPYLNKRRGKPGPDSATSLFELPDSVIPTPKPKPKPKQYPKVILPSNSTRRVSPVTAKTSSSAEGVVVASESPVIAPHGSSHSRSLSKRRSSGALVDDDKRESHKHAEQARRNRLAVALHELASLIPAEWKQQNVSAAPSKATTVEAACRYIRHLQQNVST
Test: relative binding free energy (BET-seq); higher = weaker binding
Details: reference: library average

Sequence | relative binding free energy [kcal/mol]
GGTGTCACGTGTTTAT | 0.19
AAGGACACGTGGGGCG | -0.12
TGGCACACGTGCGGGG | -0.13
ATTTTCACGTGTGAGA | 0.31
TTGGCCACGTGATGTA | -0.03
AGTCGCACGTGATTGA | 0.16
TAGGACACGTGGGGCG | -0.12
CGTTACACGTGATTAG | 0.29
GTGATCACGTGGGCAG | -0.12
GGTACCACGTGCGGGG | -0.1
TGTCTCACGTGATGGG | 0.28
CGTGTCACGTGGGTCG | -0.03
GGTTGCACGTGATTGT | 0.24
TCTCGCACGTGTTTGG | 0.04
TATAACACGTGAGTAT | 0.17
GTTAACACGTGAGGCT | 0.31
TTACTCACGTGGTGGG | 0.18
AGCCGCACGTGGGTGT | -0.19
TATGTCACGTGGCTGT | 0.12
CGGTGCACGTGGGTAG | -0.12
TAAAGCACGTGTTGGC | -0.11
AAAGTCACGTGCGGGT | 0.09
GTAAACACGTGGGAAA | 0.08
ATGGCCACGTGGGTGC | -0.31
CAGGTCACGTGGAAGT | 0.23
GTATACACGTGGTATG | -0.14

Sequence | relative binding free energy [kcal/mol]
GAGAACACGTGGGGTT | -0.1
TTTTGCACGTGTGCTC | -0.05
AATGTCACGTGTTCAT | 0.09
TTTAACACGTGCGTGA | -0.09
ATGATCACGTGTGAAG | 0.08
TAGAGCACGTGTCGGT | 0
GGGCTCACGTGGGAGC | 0.21
GCGTTCACGTGTCGGT | 0.43
TTTAACACGTGACGGT | 0.1
GGGTACACGTGGTACT | 0.09
TAAAGCACGTGGTTTC | -0.06
TGCATCACGTGGTTGA | -0.06
ATAGTCACGTGTTAGG | 0.14
CGACTCACGTGGGGTG | 0.02
TACAGCACGTGGTTTT | -0.11
ATCGGCACGTGGGGTA | -0.23
TTGGACACGTGCGGGT | 0.01
AATGGCACGTGTTGTG | -0.12
ATGAGCACGTGTCTTT | -0.03
ATATACACGTGGAAGT | 0.07
GTTGACACGTGTGTTA | 0.11
TCTGACACGTGGAGGA | 0.13
TTGGACACGTGGAGCG | 0.09
GCTAGCACGTGAGTTT | 0.23
CAGTTCACGTGCGGGG | 0.2
AAATTCACGTGGTTGG | 0.17

Sequence | relative binding free energy [kcal/mol]
TTAATCACGTGGCGAT | 0.1
GCGTTCACGTGGATTT | 0.48
GGGGGCACGTGGTTCT | -0.17
TTATTCACGTGGCTTG | 0.23
GTATACACGTGTGGCT | 0.11
CATGGCACGTGTGAGT | 0.05
ATTTTCACGTGCTGTG | 0.26
CGGAGCACGTGATGGT | 0.12
AGATACACGTGGTAGG | -0.04
ATAGGCACGTGTGAAT | -0.21
AATGGCACGTGTATCG | -0.13
GGCGTCACGTGTGTGC | 0.13
GTTGACACGTGGTTGC | 0.01
GCGCTCACGTGTGGGA | 0.31
ATGGCCACGTGGCAGG | -0.15
CGTCGCACGTGTGGAG | -0.09
AAATGCACGTGAAATG | 0.37
GTTGTCACGTGAAAGG | 0.28
GTGTTCACGTGGACTT | 0.32
GATGACACGTGGTCTT | 0.08
AGAGGCACGTGGGTCA | -0.2
CTTGACACGTGGTGCA | -0.01
AGTGGCACGTGCGGTG | -0.1
AGAGGCACGTGGTTTT | -0.22
GGGTACACGTGTCGTA | 0.19
ATGTTCACGTGGGGAC | 0.17

Sequence | relative binding free energy [kcal/mol]
GAATTCACGTGGTGGG | 0.29
TTTGACACGTGGTTGA | -0.07
TGGGACACGTGTCGGC | 0.16
ATCTTCACGTGTTGTC | 0.36
AATTGCACGTGGTGTG | -0.05
TTTGTCACGTGGAACG | 0.1
GTAATCACGTGAGTTT | 0.45
TGTTGCACGTGTGCAG | 0.06
ATAAGCACGTGAGATG | 0.26
TTTTGCACGTGTCTGG | 0.06
GTATACACGTGAATGT | 0.13
AACTACACGTGGGGGG | -0.09
AATTGCACGTGGTGAT | -0.04
TCTATCACGTGGAGTT | 0.08
GTGGACACGTGGGTGT | -0.04
TGGGGCACGTGTAGGT | -0.03
GGCGGCACGTGTTGAT | -0.04
AGTGGCACGTGGCTGG | -0.18
TGTTGCACGTGGTGGC | -0.06
ATTTCCACGTGTTGTT | 0.05
CTTTGCACGTGGTAAA | -0.04
ACGTGCACGTGGTAGG | -0.1
TATAGCACGTGAGTTT | 0.04
TCTTGCACGTGGTGAG | -0.2
GGTCACACGTGAGAGG | 0.28
TGGACCACGTGTTATG | 0.02

Sequence | relative binding free energy [kcal/mol]
TAGAACACGTGGTTGG | -0.02
TTTAGCACGTGGGCTC | -0.09
TGTGCCACGTGGCATG | -0.19
GGGTACACGTGGATTT | 0.26
TTTACCACGTGTAATG | -0.02
GTGGTCACGTGGTGTA | 0.04
GGTAGCACGTGTTGTA | -0.11
AATTGCACGTGTTGCT | -0.05
GAGATCACGTGAAGGG | 0.39
GTTCGCACGTGAAGGT | 0.26
CTGTACACGTGTGGTA | 0.06
GGGTACACGTGATAAG | 0.2
TAAGTCACGTGCAGGT | -0.04
TATGGCACGTGAGGGT | 0.03
AGGCGCACGTGTCTGG | 0.03
AGTGTCACGTGGTATT | 0.12
TGTGTCACGTGCCAGT | -0.09
ATGGGCACGTGCGGGT | -0.26
GGATTCACGTGTGGTT | 0.34
TAACGCACGTGTTGGT | -0.08
TGATACACGTGGGCGG | -0.12
AGTATCACGTGGGCGG | 0.04
GTTAACACGTGTGGGG | 0.08
CTGGGCACGTGAGCTG | 0.09
GTGGGCACGTGACGAA | 0.01
ATAGTCACGTGAGATA | 0.26

Sequence | relative binding free energy [kcal/mol]
CGATGCACGTGGAGGT | -0.09
AATAACACGTGTTATT | -0.01
CTGTGCACGTGTAAGG | -0.03
GGATACACGTGTGAAG | 0.25
TAAATCACGTGGTCAT | 0.18
TTTGTCACGTGCGAGA | 0.17
ATTTTCACGTGCGTAT | 0.26
AGTAGCACGTGGTCTT | -0.13
CCGGGCACGTGCGGAG | -0.05
TTTCACACGTGTTTTA | 0.02
CAGCGCACGTGTGTGT | -0.21
AGTGACACGTGGTCGA | -0.06
AGATCCACGTGGTGTT | -0.08
GTCGTCACGTGGGCAG | -0.09
AAGTACACGTGTAGGG | 0.06
CTGAACACGTGGGGGG | -0.14
TGTCGCACGTGAGGGA | 0.29
AGTAGCACGTGATTAT | 0.05
TGTCTCACGTGATGTA | 0.24
GTTGACACGTGGACGG | 0.1
ATGTTCACGTGGATGC | 0.26
TAGGTCACGTGAGCAT | 0.3
TGCGACACGTGGATTG | 0.02
GATAGCACGTGGGTAT | -0.11
TTTGTCACGTGTATCC | 0.1
TGGGGCACGTGCGGCA | -0.26

Sequence | relative binding free energy [kcal/mol]
TGCATCACGTGTGGGT | 0.02
TATGTCACGTGTGGGC | 0.1
AGTTACACGTGTTCGG | -0.02
TTCGTCACGTGTAGGC | -0.01
AGATGCACGTGTGTCT | -0.13
GTTTTCACGTGGTTAG | 0.38
GGTGGCACGTGAGAAC | 0.25
TGGGACACGTGGGCCG | -0.07
TGCTGCACGTGTGGCG | 0.01
TGCTGCACGTGTTGTA | -0.01
CGTGTCACGTGTCATG | -0.04
AGTCGCACGTGTAGTT | 0.08
TTGAGCACGTGTAGGC | 0
ATATACACGTGGGGGA | -0.06
TAGTTCACGTGTTTCC | 0.39
GGTTCCACGTGGTGGG | 0.08
ACTGACACGTGGTTGT | -0.05
CAGGCCACGTGTTGGG | 0.1
GTTAGCACGTGAAATA | 0.22
TTAGCCACGTGGCGGT | -0.28
AGTCTCACGTGGAGCG | 0.23
CTGCGCACGTGGGTGG | -0.26
CTGTTCACGTGTGTGA | 0.26
CGTGTCACGTGACGTA | 0.23
TTGAACACGTGTTGGT | 0.04
GGAGTCACGTGGGCCA | 0.09

Sequence | relative binding free energy [kcal/mol]
GGTCGCACGTGTGTAG | 0.13
CATGTCACGTGGAGTA | 0.04
GGCGGCACGTGATGAG | 0
AGTTCCACGTGGAGTA | 0.1
TGGTTCACGTGTGCGC | 0.26
GTGGACACGTGTCGAG | 0.15
GTTAGCACGTGGAGTC | 0.15
ATACGCACGTGTGAGT | -0.14
TGGTGCACGTGGGATC | -0.1
TGTGTCACGTGAAAGG | 0.18
TTGGTCACGTGTTGTT | 0.19
CATTTCACGTGGGTCA | 0.14
GTGCACACGTGGGGGC | -0.12
AGCGCCACGTGGGGTA | -0.22
GGGGACACGTGTTTAT | 0.19
GGTTTCACGTGAGTGC | 0.38
GTTTACACGTGTCGTT | 0.06
ATTTTCACGTGGCTCT | 0.19
CCGCTCACGTGGGGGG | 0
GGTTGCACGTGACGTG | 0.18
GTTTACACGTGGAGAT | 0.23
AAGGGCACGTGACGTA | -0.03
CTATACACGTGGGGTA | -0.22
TATGACACGTGAGAAG | 0.22
TTTCGCACGTGGGAGT | -0.19
TGTCACACGTGGCGGT | -0.04

Sequence | relative binding free energy [kcal/mol]
GAATGCACGTGGGGCG | -0.13
CATGACACGTGGTTTT | 0.08
GAGGGCACGTGCGGGT | -0.12
TTGAACACGTGTGGCT | 0.1
TGACTCACGTGATTGG | 0.35
TGCAGCACGTGGGAGC | -0.02
GGTTTCACGTGCTTGC | 0.4
GTAGGCACGTGCATTT | -0.03
AATGCCACGTGGGTGT | -0.24
CAATTCACGTGGGGGA | 0.12
TAGGACACGTGGCTGT | -0.2
AGTGCCACGTGGTGTG | -0.24
AGTGGCACGTGCTAAG | -0.24
CTTCTCACGTGGGTGA | 0.23
CTGAACACGTGTTGGT | 0.15
TCTGTCACGTGTGCTA | 0.15
TATGTCACGTGAAATT | 0.34
GTGTGCACGTGTGACT | 0.1
TGTTGCACGTGTCTAT | -0.07
GTCCGCACGTGTTTGT | 0.02
GTCGTCACGTGGGGAG | 0.07
AGGGGCACGTGAGAGG | 0.11
